# From the supplement of paper PMC8728848
# This is one part of the list.
# B1: RS2L (Ralstonia solanacearum), B5RXL5_RALSO (protein)
# chain: MAQQGVFTLPANTSFGVTAFANAANTQTIQVLVDNVVKATFTGSGTSDKLLGSQVLNSGSGAIKIQVSVNGKPSDLVSNQTILANKLNFAMVGSEDGTDNDYNDGIAVLNWPLG
# Assays:
# Test in all cases: glycan array binding signal (z-score within array); higher = stronger binding
# Conditions in all cases: glycan notation: IUPAC condensed, linker removed
# [1] = molecular target: Gal(b1-3)GlcNAc(a1-6)Gal(b1-4)GlcNAc
# How it was run: (§1)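 Columns mapping to the same glycan were averaged after glycan names were converted to IUPAC-condensed notation. The data come from 3228 arrays in the Consortium for Functional Glycomics database, limited to those with an available protein sequence. Binding is reported as a within-array Z-score averaged across arrays of one protein sequence and across linkers.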
# [2] = molecular target: Gal(b1-3)GlcNAc(b1-2)Man(a1-3)[Gal(b1-3)GlcNAc(b1-2)Man(a1-6)]Man(b1-4)GlcNAc(b1-4)GlcNAc
# How it was run: as §1
# [3] = molecular target: Gal(b1-3)GlcNAc(b1-2)Man(a1-3)[Gal(b1-3)GlcNAc(b1-2)Man(a1-6)]Man(b1-4)GlcNAc(b1-4)[Fuc(a1-6)]GlcNAc
# How it was run: as §1
# [4] = molecular target: Gal(b1-3)GlcNAc(b1-2)[Gal(b1-3)GlcNAc(b1-6)]Man(a1-6)[Gal(b1-3)GlcNAc(b1-2)Man(a1-3)]Man(b1-4)GlcNAc(b1-4)GlcNAc
# How it was run: as §1
# [5] = molecular target: Gal(b1-3)GlcNAc(b1-3)Gal(b1-3)GlcNAc
# How it was run: as §1
# [6] = molecular target: Gal(b1-3)GlcNAc(b1-3)Gal(b1-4)Glc
# How it was run: as §1
# [7] = molecular target: Gal(b1-3)GlcNAc(b1-3)Gal(b1-4)GlcNAc
# How it was run: as §1
# [8] = molecular target: Gal(b1-3)GlcNAc(b1-3)Gal(b1-4)GlcNAc(b1-6)[Gal(b1-3)GlcNAc(b1-3)]Gal(b1-4)Glc
# How it was run: as §1
# [9] = molecular target: Gal(b1-3)GlcNAc(b1-3)Gal(b1-4)[Fuc(a1-3)]GlcNAc(b1-6)[Gal(b1-3)GlcNAc(b1-3)]Gal(b1-4)Glc
# How it was run: as §1
# [10] = molecular target: Gal(b1-3)GlcNAc(b1-3)GalNAc
# How it was run: as §1
# [11] = molecular target: Gal(b1-3)GlcNAc(b1-6)Gal(b1-4)GlcNAc
# How it was run: as §1
# [12] = molecular target: Gal(b1-3)[Fuc(a1-4)]GlcNAc
# How it was run: as §1
# [13] = molecular target: Gal(b1-3)[Fuc(a1-4)]GlcNAc(b1-2)Man(a1-3)[Gal(b1-3)[Fuc(a1-4)]GlcNAc(b1-2)Man(a1-6)]Man(b1-4)GlcNAc(b1-4)GlcNAc
# How it was run: as §1
# [14] = molecular target: Gal(b1-3)[Fuc(a1-4)]GlcNAc(b1-2)Man(a1-3)[Gal(b1-3)[Fuc(a1-4)]GlcNAc(b1-2)Man(a1-6)]Man(b1-4)GlcNAc(b1-4)[Fuc(a1-6)]GlcNAc
# How it was run: as §1
# [15] = molecular target: Gal(b1-3)[Fuc(a1-4)]GlcNAc(b1-3)Gal(b1-3)[Fuc(a1-4)]GlcNAc
# How it was run: as §1
# [16] = molecular target: Gal(b1-3)[Fuc(a1-4)]GlcNAc(b1-3)Gal(b1-4)GlcNAc
# How it was run: as §1
# [17] = molecular target: Gal(b1-3)[Fuc(a1-4)]GlcNAc(b1-3)Gal(b1-4)[Fuc(a1-3)]GlcNAc
# How it was run: as §1
# [18] = molecular target: Gal(b1-3)[GlcNAc(b1-6)]GalNAc
# How it was run: as §1
# [19] = molecular target: Gal(b1-3)[Neu5Ac(a2-6)]GalNAc
# How it was run: as §1
# [20] = molecular target: Gal(b1-3)[Neu5Ac(a2-6)]GlcNAc(b1-6)Gal(b1-4)Glc
# How it was run: as §1
# [21] = molecular target: Gal(b1-3)[Neu5Ac(b2-6)]GalNAc
# How it was run: as §1
# Gal(b1-4)Gal = molecular target: Gal(b1-4)Gal
# How it was run: as §1
# [22] = molecular target: Gal(b1-4)GalNAc(a1-3)[Fuc(a1-2)]Gal(b1-4)GlcNAc
# How it was run: as §1
# [23] = molecular target: Gal(b1-4)GalNAc(b1-3)[Fuc(a1-2)]Gal(b1-4)GlcNAc
# How it was run: as §1
# Gal(b1-4)Glc = molecular target: Gal(b1-4)Glc
# How it was run: as §1
# Gal(b1-4)Glc6S = molecular target: Gal(b1-4)Glc6S
# How it was run: as §1
# Gal(b1-4)GlcNAc = molecular target: Gal(b1-4)GlcNAc
# How it was run: as §1
# [24] = molecular target: Gal(b1-4)GlcNAc(a1-6)Gal(b1-4)GlcNAc
# How it was run: as §1
# Gal(b1-4)GlcNAc(b1-2)Man = molecular target: Gal(b1-4)GlcNAc(b1-2)Man
# How it was run: as §1
# [25] = molecular target: Gal(b1-4)GlcNAc(b1-2)Man(a1-3)Man(b1-4)GlcNAc(b1-4)GlcNAc
# How it was run: as §1
# [26] = molecular target: Gal(b1-4)GlcNAc(b1-2)Man(a1-3)[Gal(b1-4)GlcNAc(b1-2)Man(a1-6)]Man(b1-4)GlcNAc(b1-4)GlcNAc
# How it was run: as §1
# [27] = molecular target: Gal(b1-4)GlcNAc(b1-2)Man(a1-3)[Gal(b1-4)GlcNAc(b1-2)Man(a1-6)]Man(b1-4)GlcNAc(b1-4)[Fuc(a1-6)]GlcNAc
# How it was run: as §1
# [28] = molecular target: Gal(b1-4)GlcNAc(b1-2)Man(a1-3)[Gal(b1-4)GlcNAc(b1-2)][GlcNAc(b1-4)]Man(b1-4)GlcNAc(b1-4)GlcNAc
# How it was run: as §1
# [29] = molecular target: Gal(b1-4)GlcNAc(b1-2)Man(a1-3)[GlcNAc(b1-2)Man(a1-6)]Man(b1-4)GlcNAc(b1-4)GlcNAc
# How it was run: as §1
# [30] = molecular target: Gal(b1-4)GlcNAc(b1-2)Man(a1-3)[Man(a1-6)]Man(b1-4)GlcNAc(b1-4)GlcNAc
# How it was run: as §1
# [31] = molecular target: Gal(b1-4)GlcNAc(b1-2)Man(a1-6)Man(b1-4)GlcNAc(b1-4)GlcNAc
# How it was run: as §1
# [32] = molecular target: Gal(b1-4)GlcNAc(b1-2)Man(a1-6)[GlcNAc(b1-2)Man(a1-3)]Man(b1-4)GlcNAc(b1-4)GlcNAc
# How it was run: as §1
# [33] = molecular target: Gal(b1-4)GlcNAc(b1-2)Man(a1-6)[Man(a1-3)]Man(b1-4)GlcNAc(b1-4)GlcNAc
# How it was run: as §1
# [34] = molecular target: Gal(b1-4)GlcNAc(b1-2)[Gal(b1-4)GlcNAc(b1-4)]Man(a1-3)[Gal(b1-4)GlcNAc(b1-2)Man(a1-6)]Man(b1-4)GlcNAc(b1-4)GlcNAc
# How it was run: as §1
# [35] = molecular target: Gal(b1-4)GlcNAc(b1-2)[Gal(b1-4)GlcNAc(b1-4)]Man(a1-3)[Gal(b1-4)GlcNAc(b1-2)[Gal(b1-4)GlcNAc(b1-6)]Man(a1-6)]Man(b1-4)GlcNAc(b1-4)GlcNAc
# How it was run: as §1
# [36] = molecular target: Gal(b1-4)GlcNAc(b1-2)[Gal(b1-4)GlcNAc(b1-4)]Man(a1-3)[GlcNAc(b1-4)][Gal(b1-4)GlcNAc(b1-2)Man(a1-6)]Man(b1-4)GlcNAc(b1-4)GlcNAc
# How it was run: as §1
# [37] = molecular target: Gal(b1-4)GlcNAc(b1-2)[Gal(b1-4)GlcNAc(b1-4)]Man(a1-3)[GlcNAc(b1-4)][Gal(b1-4)GlcNAc(b1-2)[Gal(b1-4)GlcNAc(b1-6)]Man(a1-6)]Man(b1-4)GlcNAc(b1-4)GlcNAc
# How it was run: as §1
# [38] = molecular target: Gal(b1-4)GlcNAc(b1-2)[Gal(b1-4)GlcNAc(b1-6)]Man(a1-6)[Gal(b1-4)GlcNAc(b1-2)Man(a1-3)]Man(b1-4)GlcNAc(b1-4)GlcNAc
# How it was run: as §1
# [39] = molecular target: Gal(b1-4)GlcNAc(b1-2)[Gal(b1-4)GlcNAc(b1-6)]Man(a1-6)[GlcNAc(b1-4)][Gal(b1-4)GlcNAc(b1-2)Man(a1-3)]Man(b1-4)GlcNAc(b1-4)GlcNAc
# How it was run: as §1
# [40] = molecular target: Gal(b1-4)GlcNAc(b1-3)Gal(b1-3)GlcNAc
# How it was run: as §1
binder,measurement,setting,value
B1,glycan array binding signal (z-score),[1],-0.242
same,glycan array binding signal (z-score),[2],0.345
same,glycan array binding signal (z-score),[3],-0.142
same,glycan array binding signal (z-score),[4],0.497
same,glycan array binding signal (z-score),[5],-0.239
same,glycan array binding signal (z-score),[6],-0.23
same,glycan array binding signal (z-score),[7],-0.24
same,glycan array binding signal (z-score),[8],-0.246
same,glycan array binding signal (z-score),[9],-0.239
same,glycan array binding signal (z-score),[10],-0.241
same,glycan array binding signal (z-score),[11],-0.25
same,glycan array binding signal (z-score),[12],-0.07
same,glycan array binding signal (z-score),[13],-0.247
same,glycan array binding signal (z-score),[14],1.2
same,glycan array binding signal (z-score),[15],0.028
same,glycan array binding signal (z-score),[16],-0.222
same,glycan array binding signal (z-score),[17],0.032
same,glycan array binding signal (z-score),[18],-0.248
same,glycan array binding signal (z-score),[19],-0.253
same,glycan array binding signal (z-score),[20],-0.242
same,glycan array binding signal (z-score),[21],-0.249
same,glycan array binding signal (z-score),Gal(b1-4)Gal,-0.242
same,glycan array binding signal (z-score),[22],-0.243
same,glycan array binding signal (z-score),[23],-0.243
same,glycan array binding signal (z-score),Gal(b1-4)Glc,-0.249
same,glycan array binding signal (z-score),Gal(b1-4)Glc6S,-0.246
same,glycan array binding signal (z-score),Gal(b1-4)GlcNAc,-0.248
same,glycan array binding signal (z-score),[24],-0.25
same,glycan array binding signal (z-score),Gal(b1-4)GlcNAc(b1-2)Man,-0.23
same,glycan array binding signal (z-score),[25],-0.231
same,glycan array binding signal (z-score),[26],-0.241
same,glycan array binding signal (z-score),[27],-0.168
same,glycan array binding signal (z-score),[28],-0.229
same,glycan array binding signal (z-score),[29],-0.172
same,glycan array binding signal (z-score),[30],2.9
same,glycan array binding signal (z-score),[31],-0.226
same,glycan array binding signal (z-score),[32],-0.237
same,glycan array binding signal (z-score),[33],2.54
same,glycan array binding signal (z-score),[34],-0.191
same,glycan array binding signal (z-score),[35],-0.066
same,glycan array binding signal (z-score),[36],-0.252
same,glycan array binding signal (z-score),[37],-0.251
same,glycan array binding signal (z-score),[38],0.035
same,glycan array binding signal (z-score),[39],-0.226
same,glycan array binding signal (z-score),[40],-0.246
